# Screen size: about 310,000 compounds; about 14,000 (4.5%) showed an effect of 50% or more. Effects have a minus sign here. Some of the results follow.
# Molecular target: human ether-à-go-go-related gene (hERG) potassium channel (human, UniProt Q12809)
# Experiment: primary screen, population patch clamp on CHO cells stably expressing hERG
# 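Also: peak tail current of the secondary pulse compared with the same well before compound.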
# human ether-à-go-go-related gene (hERG) potassium channel, sequence (Q12809 whole entry, looked up): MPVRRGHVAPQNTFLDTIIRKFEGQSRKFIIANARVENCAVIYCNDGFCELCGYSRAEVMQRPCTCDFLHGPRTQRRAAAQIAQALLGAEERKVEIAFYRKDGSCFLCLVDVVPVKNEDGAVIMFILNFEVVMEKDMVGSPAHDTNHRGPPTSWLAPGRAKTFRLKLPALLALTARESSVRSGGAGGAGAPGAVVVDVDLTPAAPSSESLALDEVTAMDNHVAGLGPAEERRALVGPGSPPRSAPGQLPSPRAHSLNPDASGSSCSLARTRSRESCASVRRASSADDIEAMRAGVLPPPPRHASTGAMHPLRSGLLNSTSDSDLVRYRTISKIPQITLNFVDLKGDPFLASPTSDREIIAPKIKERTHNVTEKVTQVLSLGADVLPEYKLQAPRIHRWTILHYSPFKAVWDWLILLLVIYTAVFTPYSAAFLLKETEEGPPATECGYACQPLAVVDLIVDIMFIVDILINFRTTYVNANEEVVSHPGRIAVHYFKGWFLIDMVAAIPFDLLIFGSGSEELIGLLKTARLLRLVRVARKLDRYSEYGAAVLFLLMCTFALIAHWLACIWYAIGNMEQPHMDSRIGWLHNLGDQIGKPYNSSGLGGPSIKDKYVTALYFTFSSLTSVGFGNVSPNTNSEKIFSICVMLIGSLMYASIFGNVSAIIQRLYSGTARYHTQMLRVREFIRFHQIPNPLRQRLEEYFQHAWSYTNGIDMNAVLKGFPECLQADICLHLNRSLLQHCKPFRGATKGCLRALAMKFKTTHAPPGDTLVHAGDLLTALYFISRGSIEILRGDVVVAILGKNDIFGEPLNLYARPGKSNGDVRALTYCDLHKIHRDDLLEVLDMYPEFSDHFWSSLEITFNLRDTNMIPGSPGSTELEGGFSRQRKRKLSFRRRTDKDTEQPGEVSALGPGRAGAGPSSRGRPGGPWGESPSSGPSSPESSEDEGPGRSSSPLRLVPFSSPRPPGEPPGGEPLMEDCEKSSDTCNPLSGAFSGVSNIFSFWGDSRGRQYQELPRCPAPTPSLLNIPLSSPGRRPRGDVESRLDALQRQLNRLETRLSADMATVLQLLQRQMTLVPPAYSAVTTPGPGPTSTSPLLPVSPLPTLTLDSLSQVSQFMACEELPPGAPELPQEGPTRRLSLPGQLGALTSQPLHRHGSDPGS
row,SMILES,"hERG current change (%, negative = inhibition) at 10uM [%]"
1,Cc1ccc(NC(=O)COC(=O)C(NS(=O)(=O)c2ccc(Cl)cc2)C(C)O)cc1C (stereo not shown),6.76
2,COc1ccc(/C=C/C(=O)NCc2ccccn2)cc1OC,11.5
3,Cc1cc(C(=O)NCCCN2CCN(C3CCCCC3)CC2)n(-c2ccccc2)n1,2.76
4,O=C(CCn1c(=S)oc2ccccc21)Nc1ccc(F)cc1,-7.7
5,CCN(CC(=O)Nc1ccc2c(c1)OCCO2)C(=O)c1ccc(S(=O)(=O)N(C)C)cc1,7.76
6,c1ccc(-c2csc(Cc3nnc4n3CCCCC4)n2)cc1,-36.8
7,CC(C)C(C)NC(=O)COn1nnc2ccc(S(=O)(=O)N3CCOCC3)cc21 (stereo not shown),27.1
8,Cc1cc(NC(=O)CSCC(=O)N(C)Cc2ccc(Cl)c(Cl)c2)no1,-9.94
9,O=C(O)c1ccc(-n2[nH]c3c(c2=O)CCCC3)cc1,9.74
10,CCOC(=O)C1CCN(C(c2cccc(F)c2)c2sc3nc(C)nn3c2O)CC1 (stereo not shown),-6.85
11,O=C1CCCC2=C1C(c1ccc(Cl)cc1)n1c(s/c(=C\c3ccc4ccncc4c3)c1=O)=N2 (stereo not shown),5.13
12,COc1ccc(N(C(=O)c2cccnc2)S(=O)(=O)c2cccc([N+](=O)[O-])c2)cc1,-33.8
13,O=C(Nc1cccc(Cl)c1)c1ccncc1,5.13
14,Cn1cc(C[C@H](NC(=O)OC(C)(C)C)C(=O)N[C@H](CO)Cc2ccccc2)c2ccccc21,-0.554
15,COc1ccc(C(=O)COc2ncnc3cc(Cl)ccc23)cc1,13.3
16,O=C(NNC(=O)C1CC1c1ccccc1)c1ccccc1[N+](=O)[O-] (stereo not shown),-12.8
17,CN(C(=O)COC(=O)CSCc1cccc(Cl)c1)c1c(N)n(Cc2ccccc2)c(=O)[nH]c1=O,23.9
18,CON/C=C(\C=Nc1ccc(C(F)(F)F)cc1)c1ncc(C(F)(F)F)cc1Cl,-3.76
19,Cc1ccc(C(=O)Nc2c(C)cc(-c3ccccc3)oc2=O)cc1,2.87
20,O=C(CCn1c(=O)c2ccccc2n(Cc2ccccc2)c1=O)NC1CCN(Cc2ccccc2)CC1,-42.5
21,Cc1noc(/C=C/N(C)C)c1S(=O)(=O)N1CCCC(C(=O)NCc2ccc(F)cc2)C1 (stereo not shown),0.399
22,COc1ccc(NC(=O)c2ccc3c(c2)CCN3S(=O)(=O)c2ccccc2)cc1,-1.18

row,SMILES,"hERG current change (%, negative = inhibition) at 10uM [%]"
1,Cc1ccc2c(c1)CCCN2C(=O)NC1CCCCC1,-4.35
2,COc1cccc(NC(=O)c2cc(-c3ccccn3)nc3ccccc23)c1,9.45
3,CCOc1[nH]n(-c2ccc(Cl)cc2)c(=O)c1C=Nc1ccc(O)cc1,1.14
4,CCOCCCNC(=O)CN1C(=O)C(CC)Oc2ccccc21 (stereo not shown),1.94
5,CC(NCC(=O)Nc1cc(Cl)cc(Cl)c1)c1ccccc1.O=C(O)C(=O)O (stereo not shown),-0.749
6,COc1cc(-c2csc(N3CCOCC3)n2)cc(OC)c1OC,13.3
7,O=C(O)CC1S/C(=N\N=C2CCCCCCC2)N(c2ccccc2)C1=O (stereo not shown),28.8
8,CCOC(=O)CCc1c(C)c2ccc(OCc3ccc([N+](=O)[O-])cc3)cc2oc1=O,-3.1
9,O/N=C(/c1ccc(Cl)cc1)C1CC1c1ccccc1 (stereo not shown),2.06
10,Nc1ccc(CCc2nc3ccccc3o2)cc1,-0.017
11,Cc1ccc(C2=CCNCC2)cc1.Cl,17.1
12,Cn1nc(C(=O)NCCOc2ccccc2)c2ccccc2c1=O,-15.1
13,COc1ccc(C2C(C(C)=O)=C(O)C(=O)N2c2ccc(C)cc2)cc1 (stereo not shown),17.6
14,c1ccc(-c2noc(-c3ccncc3)n2)nc1,4.49
15,Nc1ccn([C@@H]2CS[C@H](CO)O2)c(=O)n1,10.3
16,COc1ccc(C(=O)COC(=O)CN2C(=O)NC(C)(C)C2=O)cc1OC,-1.87
17,c1csc(-c2nnc(Cc3cccc4ccccc34)o2)c1,-8.86
18,COc1ccc(C2N(c3cc(Cl)ccc3OC)C(=O)C3CCCN32)cc1OC (stereo not shown),-4.91
19,Cc1cc(C(=O)N/N=C/c2c[nH]c3ccccc23)c(C)o1,-27.4
20,O=S(=O)(N1CCOCC1)N1CCN(c2ccccc2F)CC1,-8.17
21,CCOc1cc(NC(=S)NCCCN2CCOCC2)c(OCC)cc1NC(=O)c1cccc(C)c1,9.73
22,O=C(CN1CCN(c2ccccc2)CC1)NC(=O)NCc1ccccc1,9.43

row,SMILES,"hERG current change (%, negative = inhibition) at 10uM [%]"
1,CC(C)(Cl)[N+](=O)[O-],12.5
2,Cc1cc(=O)oc2cc(OCC(=O)OCC(=O)Nc3ccccc3Br)ccc12,14.5
3,Cc1ccc(-c2[nH]ncc2C(=O)c2ccccc2C)c(O)c1,-4.84
4,COc1ccccc1NS(=O)(=O)c1cccc(C(=O)N/N=C/c2ccc(NC(C)=O)cc2)c1,20.1
5,COc1ccccc1N(CC(=O)N1CCc2ccccc2C1)S(C)(=O)=O,13.6
6,CCCC1S/C(=N/N=C/c2ccc(C)cc2)N(Cc2ccc(OC)cc2)C1=O (stereo not shown),9.81
7,O=C(O)c1cnn(-c2nc(-c3ccc(Cl)c(Cl)c3)cs2)c1C(F)(F)F,18
8,CCC(=O)Nc1nc(C)c(C(=O)Nc2cccc(Cl)c2)s1,8.17
9,COc1ccc(N(CC(=O)Nc2cccnc2)S(=O)(=O)c2ccccc2)cc1OC,-9.62
10,COc1ccccc1-c1nc(SCc2ccccn2)n[nH]1,-4.23
11,C=CCn1c(P(C)(=O)[O-])nc2ccccc21.[K+],7.28
12,CC1(C)CSC(=NCc2ccccc2)N1,13.5
13,COc1ccc(C2C(C#N)=C(N)Oc3c2oc(CO)cc3=O)cc1 (stereo not shown),-0.696
14,COc1ccc(S(=O)(=O)N2CCOC23CCN(S(=O)(=O)c2cc(C)ccc2C)CC3)cc1,8.89
15,CCn1cc(C(=O)NCC2CCCO2)c(=O)c2cc(S(=O)(=O)N(C)C3CCCCC3)ccc21 (stereo not shown),-31.6
16,CN(CC(=O)N1CCc2ccccc21)S(=O)(=O)c1cccc2cccnc12,-8.39
17,Cc1onc(-c2ccccc2)c1C(=O)Nc1ccon1,-2.65
18,CCCCCSc1nnc(-c2ccccc2NC(C)=O)c(=O)[nH]1,22.5
19,COc1ccc(/C=N/Nc2nnc(C)n2N)cc1OC(C)=O.Cl,14.3
20,COc1ccccc1N1CCN(c2ccc([N+](=O)[O-])cc2Cl)CC1,10.5
21,CC[C@H](C)[C@H](NC(N)=O)C(=O)Nc1ccc(NC(C)=O)cc1,12.5
22,O=C(O)CCn1c(=O)sc2ccccc21,7.89

row,SMILES,"hERG current change (%, negative = inhibition) at 10uM [%]"
1,Cc1ccc(C)c(COc2coc(CN3CCN(C(=O)c4ccco4)CC3)cc2=O)c1,-100
2,COc1cccc(OC)c1C(=O)Nc1ccncc1,24.6
3,Cc1ccc(OCC(=O)N(Cc2ccccc2)C(C)C)c([N+](=O)[O-])n1,-21
4,CNc1ccccc(-c2ccc3cc4c(cc3n2)OCO4)c1=O,-13.4
5,COc1ccc(S(=O)(=O)NC(CC(=O)NCCc2ccc(OC)c(OC)c2)C(C)C)cc1 (stereo not shown),-0.875
6,CCCCCCNc1nc(Cl)nc(NC(C)(C)CO)n1,15.6
7,CC1CC2=C(C(=O)O1)C(c1ccc(Cl)cc1)Nc1ccccc1N2 (stereo not shown),-6.21
8,COc1cc(C(=O)OCCN2CCOCC2)cc(OC)c1OC,-5.95
9,O=C(Nc1ccccn1)N1CCOCC1,15.1
10,Cc1cccc(N(Cc2ccccc2)C(=O)C2CCN(C(=O)c3ccccc3C)CC2)c1,-35.2
11,COc1ccc(C2OCC3(CO2)SC(=O)NC3=O)cc1 (stereo not shown),1.92
12,COc1ccccc1-c1n[nH]c2c1[C@H](C)CC[C@H]2C(C)C,9.34
13,O=C1c2nc3cc(-c4ccco4)[nH]n3c(=O)c2CN1Cc1ccccc1,10.7
14,COC(=O)CSc1nnc(C)n1-c1cccc(C#N)c1,-0.894
15,Cc1cc(=O)[nH]c(SCC(=O)Nc2ncc(S(=O)(=O)c3ccc([N+](=O)[O-])cc3)s2)n1,3.53
16,CCOc1ccccc1/C=N/Nc1ccnc(=O)[nH]1,21
17,CC(C)Cn1nc(C(=O)Nc2cccc(S(=O)(=O)N3CCCC3)c2)c2ccccc2c1=O,-7.01
18,O=C(c1cc(-c2ccncc2)nc2ccc(Cl)cc12)N1CCN(Cc2ccc3c(c2)OCO3)CC1,-46.7
19,CCCn1cc(S(=O)(=O)c2ccccc2)c(=O)c2cc(OC)c(OC)cc21,7.08
20,CC1(C)SC(=S)N(NC(=O)Nc2cccc3ccccc23)C1N(O)C(=O)Nc1ccccc1 (stereo not shown),5.77
21,Cc1nc2ncnn2c(N2CCN(C(=O)c3cccc(F)c3)CC2)c1Cc1ccccc1,-45.6
22,CN1CCN(C(=O)c2ccc(COc3ccc(C(C)(C)C)cc3)o2)CC1,-37.8

# Reference: publication PMC4336329 (PLoS ONE, 2015)
